# Some of the results follow.
# Test system: PF3D7_0420300 AP2 domain 1 (GST-tagged)
# Test: gcPBM binding intensity (ln(normalized median fluorescence intensity)); higher = stronger DNA binding
# In short: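 The binding buffer was 1× PBS containing 1% milk, 0.2 mg/ml BSA, 0.5% salmon testes DNA and 0.03% Triton X-100. In it, GST-tagged P. falciparum DNA-binding domains expressed in E. coli were applied for 1 h to an Agilent 4 × 180k array of primer-extended double-stranded 36-bp intergenic genomic probes plus negative controls. Binding intensity, read with Alexa488 anti-GST antibody and a 488 nm scan, is the highest Masliner-normalised natural-log median intensity across replicate spots of either probe orientation.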
row,Sequence,gcPBM binding intensity (ln)
1,TTTATATATTATACATGTACATATTTATTTATATAA [XGTACX_site3474],9.31
2,TATATGCACTTAATATGTACACAAAAAAAAAAAAAA [XGTACX_site6199],8.95
3,GTAAAAGTTAAAAAAACATGCAAAATTTAAAAAAAA [TGCATGCA_site637],9.17
4,ATACATATATATATTCTACACACTTATAATATAATA [CACACA_site8782],9.54
5,ACTATATTTGCCCTTTTAATCAGAACAAAAAAAAAA [CACACA_negctrl_site1051],8.93
6,ATTATATTCCAAGTTTGTACATATATATAAAAGTAT [XGTACX_site1631],9.16
7,TGAAATGATATATAAACACACATATATATATATATA [CACACA_site3511],9.11
8,ATTTTTAATGTGATCACACATAAATATTATATATAT [CACACA_site5641],9.27
9,GTATAAAAAAATATATGTACTTATTTACATATATAT [XGTACX_site4744],9.07
10,ATATTATAATTGAAGGTGCAAAATGTAATATAGATA [GTGCAC_site9661],9.4
11,ATTATTATTTAAAAAAGTACATTGAAGTTCATAATA [XGTACX_site3575],9.01
12,ATTCATTTTTTGGGGGGTACACCCTTTTAAACATTT [XGTACX_site4797],9.98
13,TATAAACATAAATATACACACAAACATATAGGTATT [CACACA_site6690],9.96
14,CTTGTATATAAACACACACACACTTTCTTTTTTTAA [CACACA_site8602],9.91
15,ATTAATCAATATAGGCGTACAAAAAAAATAAATTAT [XGTACX_site1513],9.44
16,CCCCTTAATTTATTTTGTACATATAATTTTTTTTTT [XGTACX_site3270],9.34
17,AAAAAAAAAAAAAAAAAAAAAAATATATATATATTT [GTGCAC_negctrl_site502],9.2
18,GTATTTTTAAATGACACACACATATATAAATATGTA [CACACA_site6880],9.51
19,ACAAAAATAAGCAAATGTACATATGTATAATATATT [XGTACX_site2492],9.52
20,CTGGAGTTAAAAATGTGTACCTAAAAAATTTTGTTC [XGTACX_site5554],9.14
21,ATTATTATATATAAAACACACAATTTTGTTTTCACA [CACACA_site3965],9.25
22,ACTATTTAAATGCAAAGTACTTTGATAATAAACAAT [XGTACX_site2608],9.34

row,Sequence,gcPBM binding intensity (ln)
1,TAATATAACAAAAAAATAAAATAAAATAAAAAATAA [CACACA_negctrl_site109],9.35
2,ATATAATAATATTAAAGTACATGCATATATATTTAT [XGTACX_site7422],9.32
3,ATTTTTTAAAAAAACATACACACAAAAAAAAAAAAA [CACACA_site3936],9.31
4,CATAATATCTCTTTGTGTACATATAGTTATTATTAT [XGTACX_site7688],9.37
5,AATGTGAAAAAAAAAAGTACAGACCTAATCAAAAAA [XGTACX_site2486],9.56
6,TTTTTTAAAAGATATATAATATGTATGAATATTCAA [XGTACX_negctrl_site380],8.85
7,AATATAAAAAAAGAGGAGGGATGGTATACTTGTGGT [CACACA_negctrl_site986],9.71
8,ATAGAAGGCAACTTGGTGCACAAAAAAAAAAATAAT,9.5
9,AAAAAAAATACATACACACACACACCCACATATATA [CACACA_site3561],10.1
10,CGAACAAACAAATAAACACACAAAAAAAAATATATA [CACACA_site1825],9.61
11,ATACTTATGATAAATACACACTTGAAATTAAGGATT [CACACA_site4772],9.42
12,TTAAAGCTGACATATACACACATACATAAATTCATA [CACACA_site5377],9.57
13,TATACATATATTATATGTACATATATATATAATATA [XGTACX_site2942],9.06
14,GGACAAGTTTTTTACATAAATAAAAAAAATAAAAAA [XGTACX_negctrl_site125],8.93
15,ATATATATATAATAAACACACAAATAGATATAACAT [CACACA_site3715],9.98
16,GTAATTTTGAGATGATGTACATATTTTTTCCTTGTC [XGTACX_site4103],9.22
17,TAAGATATATTTTTTTGTACACATAATAAAATAATA [XGTACX_site8938],9
18,GATAAATCATATATAACACACATATGAATATTACAA [CACACA_site1321],9.48
19,AAAAGAAACTTATTTACGCACACTTTATTGCATGTT [CACACA_site3887],9.31
20,ATAATGTAGAACTAGAGTACATAAAAAAATAAACAT [XGTACX_site5205],9.53
21,TTTTTTTTTTTTTTTTTTTGTCTTATATATTACGGA [CACACA_negctrl_site322],8.52
22,GCTACACAATTTTTTAGTACACACATATAAATATAT [XGTACX_site3131],9.63

row,Sequence,gcPBM binding intensity (ln)
1,TATATATTATCAAGTGGACACACGAAAAAAAGGAAA [CACACA_site3741],9.55
2,TTTTTCATATTATACTTTTATATACATATATAAAAA [XGTACX_negctrl_site281],8.97
3,TAAAGATTGTTCAGTGCATGTTGGCCTGTAAATGGA [TGCATGCA_site315],9.1
4,CAACATATGCATATGTGTACATATTTTATTTTCAAC [XGTACX_site2237],9.21
5,ACATACATATGTAAATGTACAAAATATCCATAGATT [XGTACX_site2782],9.42
6,ATATACTCATTAATAACACACAATATGATAACAAAT [CACACA_site5913],9.78
7,AATATATTTCATTTTTGTACACACAACGTTGGAGGG [XGTACX_site6461],9.76
8,ATGTTATATATGTATTGTACGTATTTTGTATATTAT [XGTACX_site6607],9.72
9,AGTGTTTTTTATAAAGTGCAATATAAAAACAAAATG,9.29
10,AATTTTTTTTTATTGTGTACTTATTTTTTTATATTT [XGTACX_site917],9.66
11,AAGAATAAAGAATGGTGTACATGCATATAAAATATT [XGTACX_site5707],9.63
12,TTTTATTTCATTTGTTGTACTTTCAAAATATTATTA [XGTACX_site2192],9.32
13,GATAAAACGTTATGCACACGTACGTGAGTATTTATA [CACACA_site1570],9.3
14,AATGATAAATAAAAAGCATGCAACAAATAAAAATAA [TGCATGCA_site453],9.62
15,AACAAAACTTTGGATACATGCAAAATTTTTAAATGA [TGCATGCA_site249],9.21
16,GTTTTTTTGTTTTAAAGTACTTAAAAAAAAAATATA [XGTACX_site6998],8.69
17,TATATATATTTATGCACACAAAATATATTATAGAAT [CACACA_site3740],9.31
18,AATGTTTATTTTGTTTGTACATAAAATGAATAAAAT [XGTACX_site1456],9.04
19,GTTATATATTTTTATGCATGCATTTTTAAATATATA [TGCATGCA_site175],9.28
20,TTTATATATATAAATATGTAGATAACAATATTCTGA [TGCATGCA_negctrl_site554],8.98
21,ATACATAAATTTTGTACACACAAAAAAAAAAAAGCT [CACACA_site1351],9.78
22,AAAATATACATATATGCATGCATATAAATAAAAAAA [TGCATGCA_site812],9.36

row,Sequence,gcPBM binding intensity (ln)
1,TTACAGATATTTATCTGTACATATATTTAAAAATAT [XGTACX_site7431],8.79
2,TAATTTTTTTAAAAGCGTACATTTAAAAAAAAATAT [XGTACX_site2736],8.76
3,AAAAGTAAAAAAAAAAAAAGTAAAAAAAAAAAAAAA [CACACA_negctrl_site389],8.7
4,TTTTTAAATTCTTTAATATGTTTTATATATCAAAAT [CACACA_negctrl_site75],8.92
5,TCTTATCATTTTAAATCACACACATATATATATATA [CACACA_site8925],9.52
6,ACTGTAATATTGAAAGTGCATTAAAGTGTATATTAT [GTGCAC_site9970],9.29
7,TTATTTTATTTAGGGTGTACCCAATTTTTCCATATG [XGTACX_site4957],9.07
8,ATTTATATTTATAAATGTACACATATATATTTCATT [XGTACX_site2723],9.26
9,AAAAATTTTTTACATCGTACAGATATATATAATAAA [XGTACX_site3331],9.01
10,TCTTTTAACACATGTGATATTATTTAATAACAATAA [CACACA_negctrl_site339],9.07
11,GGTATACACAAGTATACACACATATAAATATAAATA [CACACA_site7511],9.49
12,CTTTTATAATTCATATGTACTTATTTTTAACATAGG [XGTACX_site7808],9.15
13,TGTACATATATATATATATATGTTACTGAAATAAAA [CACACA_negctrl_site1658],9.1
14,AAGAATAACTTTTATACATGCAGCATAATATATTGT [TGCATGCA_site605],9.23
15,AATAACCACAGACACACACACATATAAATATAAATA [CACACA_site7631],10
16,ATATATATGTATACATGTACATATTTTATTATGTGC [XGTACX_site7207],9.21
17,GTGATTAATATATACACACATACATATATATATATA [CACACA_site2817],9.49
18,GCACACATATAATAATGTACATATATATATTTAAAA [XGTACX_site4561],9.33
19,TATTGATTATTTGAATGTACTTATTATATTAAATAT [XGTACX_site1304],9.1
20,AATAAAAATATTTTTACATGCAAATGTTATATATTT [TGCATGCA_site1056],9.21
21,ACACGCACATATATATAAATATATATATATATAAAT [CACACA_negctrl_site1781],9.21
22,ATTCTACACAGACATACACACATATATATATATATA [CACACA_site5826],9.62
